The campaign covered roughly 52,000 compounds. About 1,700 (3.3%) were called active. Cut-off read from the data, not from the text of the source: active = survival mostly below about 52% (no sharp cut-off); inactive = mostly above about 56%. Some of the results follow.
These compounds were tested on Wild type (assay: growth inhibition of S. aureus wild type versus tarO mutant, primary screen, teichoic acid synthesis inhibitors, RN4220, OD600 (AID 463173)). Conditions: S. aureus RN4220 wild type/DeltatarO growth, OD600, 18 h, active compounds read low, screened at 18.75 µg/mL (by protocol).

| Structure (SMILES) | survival |
| --- | --- |
| NS(=O)(=O)c1ccc(NC(=O)c2cc(-c3cccs3)nc3ccccc23)cc1 | inactive: 130% |
| CCc1nnc(NC(=O)c2ccc(S(=O)(=O)N3CCc4ccccc4C3)cc2)s1 | inactive: 107% |
| COCC(=O)N1CCN(c2ncnc3c(-c4ccc(Cl)cc4)nsc23)CC1 | inactive: 114% |
| CCOc1ccc(N(CC)S(=O)(=O)N2CCCC(C(=O)NCCc3ccc(OC)cc3)C2)cc1 (centres undefined) | inactive: 76% |
| CCN(CC)S(=O)(=O)c1ccc2oc(C(=O)NCc3ccccc3OC)c(C)c2c1 | inactive: 90% |
| Cc1ccc(C)c(N2CCN(C(=O)c3cc(S(=O)(=O)N4CCCCCC4)cn3C)CC2)c1 | inactive: 77% |
| COCCCNC(=O)c1ccc(Cn2c(SCc3cccc(C)c3)nc3cccnc32)cc1 | inactive: 68% |
| Cc1ccc(S(=O)(=O)NCC2CCC(C(=O)NCCc3ccc(Cl)cc3)CC2)cc1 (centres undefined) | inactive: 82% |
| Cc1cccc2sc(N(CCCN(C)C)C(=O)COc3ccccc3)nc12 | inactive: 120% |
| CCNc1ncnc2c1oc1ccccc12 | inactive: 101% |
| COC(=O)c1ccccc1NC(=O)Cn1c(=O)n(-c2cccc(C(F)(F)F)c2)c(=O)c2c(C)c(C)sc21 | inactive: 82% |
| O=S(=O)(CCn1cccc1)CCn1cccc1 | inactive: 98% |
| CCOC(=O)C1CCCN(C(=O)c2nn(-c3ccc(C)cc3)c(=O)c3c2c2ccccc2n3C)C1 (centres undefined) | inactive: 72% |
| CCCn1c(CCCNC(=O)c2ccccc2OC)nc2ccccc21 | inactive: 133% |
| O=C(/C=C\c1ccccc1)NC1CC(=O)N(c2ccccc2)C1 (centres undefined) | inactive: 136% |
| Cc1ccc2c(c1)cc(CN(Cc1ccco1)S(=O)(=O)c1ccccc1)c1nnnn12 | inactive: 102% |
| COc1ccc(CC(NC(C)=O)C(=O)N2CCN(C(=O)Nc3ccc(C#N)cc3)CC2)cc1 (centres undefined) | inactive: 105% |
| Cc1cc(C)c2c(n1)sc1c(=O)n(-c3cc(Cl)ccc3C)nnc12 | inactive: 89% |
| CCN(Cc1ccccc1)C(=O)c1sc2nc3n(c(=O)c2c1C)CCCC3 | inactive: 81% |
| CCOc1ccc(CNS(=O)(=O)c2ccc(-c3coc(C)n3)cc2)cc1OC | inactive: 68% |
| OC(COC(c1ccccc1)c1ccccc1)CN1CCCCC1 (centres undefined) | inactive: 97% |
| CCN(CC)CCCNC(=O)c1nn(-c2ccc(C)cc2)c(=O)c2c1c1ccccc1n2C | inactive: 62% |
| CCCCN(C)CCCNC(=O)Cn1ncc2c3ccccc3n(Cc3cc(C)ccc3C)c2c1=O | inactive: 96% |

| Structure (SMILES) | survival |
| --- | --- |
| NNC(=O)CNC(=O)c1ccc2c(c1)OCO2 | inactive: 107% |
| O=C(CN1CCOCC1)NC12CC3CC(CC(C3)C1)C2 | inactive: 101% |
| COc1ccccc1CNC(=O)c1cc2c(s1)-c1ccccc1OC2 | inactive: 92% |
| CCC(=O)N1c2ccc(S(=O)(=O)CCC(=O)Nc3ccc(Br)c(C)c3)cc2CC1C (centres undefined) | inactive: 87% |
| O=C(O)COc1nsnc1N1CCOCC1 | inactive: 102% |
| COCCNC(=O)Cn1c(=O)n(CCCCCC(=O)Nc2ccccc2)c(=O)c2sccc21 | inactive: 88% |
| COc1ccc(/C=C(\C#N)c2nc3ccccc3n2C)c(OC)c1 | inactive: 59% |
| O=S(=O)(c1ccccc1)c1nnn2c1nc(NCc1ccccc1)c1sccc12 | inactive: 91% |
| CCOCCCN(Cc1ccco1)C(=O)c1cc2c(=O)[nH]c3ccc(C)cc3c2s1 | inactive: 127% |
| CCc1ccc2c(c1)-c1ccccc1S(=O)(=O)N2CC(=O)N1CCCCC1 | inactive: 86% |
| COc1ccc(-c2cn3c(n2)sc2cc(C(=O)NCCc4ccc(OC)cc4OC)ccc23)cc1 | inactive: 76% |
| Cc1ccc(Cl)cc1N1CCN(C(=O)CN2C(=O)CSc3c2c(C)nn3-c2ccccc2)CC1 | inactive: 70% |
| COc1cccc(NC(=O)c2cnc(SCC(=O)N3CCOCC3)n(C)c2=O)c1 | inactive: 128% |
| O=C(NCc1cccs1)c1ccc(Cn2c(SCc3ccc(F)cc3)nc3cccnc32)cc1 | inactive: 91% |
| COc1cc(Cl)c(C)cc1NC(=O)Cn1ncc2c3ccccc3n(Cc3ccccc3)c2c1=O | inactive: 86% |
| CCc1ccc(CNC(=O)c2c(C)oc3ncn(CC(C)C)c(=O)c23)cc1 | inactive: 79% |
| COc1ccc(C(=O)N2c3ccc(C)cc3C(C)(c3ccccc3)CC2(C)C)cc1 (centres undefined) | inactive: 45% |
| Cn1c(=O)[nH]c(=O)c2c1nc(CN1CCN(c3cccc(Cl)c3)CC1)n2Cc1ccccc1 | inactive: 110% |
| O=C(NCCCc1nc2ccccc2n1Cc1ccc(Cl)cc1Cl)c1ccco1 | inactive: 67% |
| CCN(CC)CCCNC(=O)CN1N=C(c2ccc(OC)cc2)CCC1=O | inactive: 119% |
| COc1ccc(CNC(=O)CCCn2c(=O)c3cccn3c3cccnc32)cc1 | inactive: 115% |
| COc1ccccc1CN1CCC(CNC(=O)c2cnn(-c3ccc(Cl)cc3)c2C2CCN(C(=O)OC(C)(C)C)CC2)CC1 | inactive: 132% |
| CCCCc1nc2ccccc2c(C(=O)O)c1C | inactive: 106% |

| Structure (SMILES) | survival |
| --- | --- |
| CC(C)c1ccc(OCC(O)CN2CCN(c3ccc(F)cc3)CC2)cc1 (centres undefined) | inactive: 73% |
| CCOC(=O)c1c(-c2ccccc2)oc2cc(Br)c(OCC(N)=O)cc12 | inactive: 107% |
| O=S(=O)(c1cccc(F)c1)N1CCC(Oc2ccc(-n3cnnn3)cc2)CC1 | inactive: 84% |
| CCOCCCNC(=O)c1c(NC(=O)Cc2coc3ccc(C)cc23)sc2c1CCC2 | inactive: 109% |
| CCc1ccc(S(=O)(=O)c2c(C(=O)c3ccccc3)cnc3ccc(CC)cc23)cc1 | inactive: 79% |
| COc1cccc(-c2nnc(SCC(=O)N3c4ccccc4Sc4ccccc43)o2)c1 | active: 11% |
| Cc1ccccc1NC(=O)c1ccc(Cl)c(S(=O)(=O)N2CCCCCC2)c1 | inactive: 122% |
| CCCCNS(=O)(=O)c1ccc2nc(-c3cccnc3)cc(C(=O)NCCOC)c2c1 | inactive: 45% |
| CC(=O)Oc1ccccc1C(=O)N1CCN(c2ccccc2F)CC1 | inactive: 96% |
| COc1ccc(NC(=O)CSc2nccn2Cc2ccco2)c(OC)c1 | inactive: 127% |
| CCC1CCCCN1C(=O)Cn1c(=O)cc(C(F)(F)F)c2c(C)nn(C)c21 (centres undefined) | inactive: 68% |
| COc1ccc(OC)c(NC(=O)Cc2c(C(=O)O)n(C)c3ccc(C)cc23)c1 | inactive: 88% |
| O=C1c2[nH]nc(-c3ccccc3O)c2C(c2ccc(F)cc2)N1CCO (centres undefined) | inactive: 81% |
| Cc1cc(=O)[nH]c2c1c(=O)[nH]n2C1CC(C)N(C)CC1C (centres undefined) | inactive: 104% |
| COC(=O)c1cnn(-c2ccc(C(=O)Nc3cc(OC)c(OC)c(OC)c3)cc2)c1N | inactive: 90% |
| COc1ccc(-c2nc(SCC(=O)N3CCCCC3C)n[nH]2)cc1 (centres undefined) | inactive: 134% |
| CCOC(=O)c1cc(-c2ccc(OC)cc2)n(CCC(=O)Nc2nc3ccc(OCC)cc3s2)c1C | inactive: 79% |
| CCOC(=O)c1c(C)sc(-c2c(-c3ccc(OC)c(F)c3)[nH]c3[nH]c(=O)[nH]c(=O)c23)c1O | inactive: 111% |
| CC1=C(C(=O)Nc2ccc(Cl)cc2)C(c2ccc(C(F)(F)F)cc2)n2nnnc2N1 (centres undefined) | inactive: 68% |
| CCc1cccc(C)c1Nc1c(-c2cccc(O)c2)nc2nc(C)cc(C)n12 | inactive: 70% |
| CCc1ccc(-n2c(=O)c3c(C)c(C(=O)N(C)C)sc3n(Cc3ccccc3C#N)c2=O)cc1 | inactive: 82% |
| Cc1ccc(CN(Cc2ccco2)C(=O)c2ccc(Cl)cc2)o1 | inactive: 109% |
| CC(NC(=O)c1ccco1)c1ccccc1 (centres undefined) | inactive: 112% |

| Structure (SMILES) | survival |
| --- | --- |
| Cc1cccc(NC(=O)CSc2nc3ccc(NC(=O)COc4ccccc4F)cc3s2)c1 | inactive: 106% |
| Cc1ccc(NC(=O)C2CCCN2S(=O)(=O)c2ccc3c(c2)CCCC(=O)N3)cc1Cl (centres undefined) | inactive: 113% |
| CC(C(=O)N1CCCCC1)N1CCC(N2CCCCC2)CC1 (centres undefined) | inactive: 93% |
| COc1ccc(NC(=O)c2c(NC(=O)Cc3ccccc3)sc3c2CCCC3)cc1 | inactive: 126% |
| O=C(CSc1ccc2nc(-c3ccccc3)cn2n1)Nc1cccc(F)c1 | inactive: 72% |
| COc1ccc(NC(=O)Cn2c(=O)n(Cc3ccc(C(=O)NCc4ccccc4Cl)cc3)c(=O)c3ccccc32)cc1 | inactive: 73% |
| COc1ccc(Cn2nnc3c(=O)[nH]c(C4CCN(C(=O)c5ccc(C)cc5)CC4)nc32)cc1OC | inactive: 53% |
| Cc1cc(F)ccc1NC(=O)Cn1c(=O)ccc2cc(S(=O)(=O)N3CCC(C)CC3)ccc21 | inactive: 73% |
| CCN(CC)CCCNC(=O)CN1N=C(c2ccccc2)CCC1=O | inactive: 76% |
| Cc1nn(C)c2c1c(C(F)(F)F)cc(=O)n2C(C)C(=O)NCc1ccccc1Cl (centres undefined) | inactive: 135% |
| Cc1nn(CC(=O)N2CCN(c3cccc(C(F)(F)F)c3)CC2)c(=O)c2cccn12 | inactive: 95% |
| COC(=O)c1sccc1S(=O)(=O)N(CC(=O)NCc1ccc(F)cc1)c1ccc(Cl)cc1 | inactive: 72% |
| COc1ccc(CNC(=O)c2ccc(CNS(=O)(=O)c3ccc(F)cc3)cc2)cc1 | inactive: 105% |
| Cc1ccc(NC(=O)Cn2nnc(C(=O)NCc3cccs3)c2N)cc1Cl | inactive: 81% |
| Cc1cc(C)c2c(c1)c1n[nH]c(=S)nc1n2C | inactive: 82% |
| Cc1oc(-c2cccc(Cl)c2)nc1Cn1c(SCc2ccccc2F)nc2ccncc21 | inactive: 68% |
| Cc1sc(NC(=O)c2ccccc2F)c(C(=O)O)c1C | inactive: 97% |
| Cc1cc(C)cc(NC(=O)Cn2c(C(F)(F)F)nc3ccccc32)c1 | inactive: 83% |
| CCCCNC(=O)C1CCN(Cc2ccccc2OCC)CC1 | inactive: 118% |
| COc1ccccc1NC(=O)CSC1=Nc2ccccc2C2=NC(CC(=O)NCc3cccs3)C(=O)N12 (centres undefined) | inactive: 92% |

From PubChem BioAssay AID463173 (ICCB-Longwood Screening Facility, Harvard Medical School, 2010)
